# In the supplement of paper PMC11417369:
# The other results are listed elsewhere or left out.
# System: PfAP2-HC AP2 domain (GST-tagged)
# Test: gcPBM binding intensity (ln(normalized median fluorescence intensity)); higher = stronger DNA binding
# Summary of the method: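 Binding intensity is the highest Masliner-normalised natural-log median intensity over replicate spots in either probe orientation. To obtain it, GST-tagged P. falciparum DNA-binding domains made in E. coli were incubated for 1 h on an Agilent 4 × 180k array of primer-extended double-stranded 36-bp intergenic genomic probes plus negative controls. Detection used Alexa488 anti-GST antibody with scanning at 488 nm.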
row,Sequence,gcPBM binding intensity (ln)
1,ACCAAAAAAAAAAAAAAAAAAATATACATATATATA [GTGCAC_negctrl_site582],9.3
2,TTTTTTTTGGTATAATGTACATTTTCACTTATGTAT [XGTACX_site3259],9.76
3,ATTTTATTTTCTCACACACACATATATATATATATA [CACACA_site5781],10.2
4,ACATATGTTAAAAAGGCATGCATTCTTTTTATTTTA [TGCATGCA_site1043],9.56
5,TATATATCGCATAAAACACACAAAAAAAAAATTAAA [CACACA_site7767],9.91
6,AAAAAAAAAATATACACACACACATACACATAAATA [CACACA_site3808],10.4
7,ATATATATCTTTTGTGTGCACATATATATAATATAT,10.5
8,TTATATTCTATTTATTGTACTTAAATATATATATAT [XGTACX_site6400],9.7
9,TATTTTCCCTCCATATGTACTTAATTATAAGCACAT [XGTACX_site4000],9.69
10,AAACGAAAAAAATGGTGTACATTAAAATGAAAATTG [XGTACX_site7040],9.74
11,TCTATCTTTTCCAAACGTACATTTTTTATATAAATT [XGTACX_site5352],9.77
12,ATTTCATTTATAAGGATATCTACTTTTTATTTTAAT [GTGCAC_negctrl_site59],9.64
13,TTTTTTTTCCTAATGTGTACTAAAAATGAACAATAA [XGTACX_site5248],9.41
14,TTTTTTATTTTATTTTATTTTTATTTTTTTTTTTTT [GTGCAC_negctrl_site596],9.42
15,AACATTATTTTGTGTACACATTCGGTTATATTATAT [CACACA_site5628],10
16,ATATTTTTTTCATAGACACACACAATATATCTGTTT [CACACA_site8993],10.1
17,AAAAAAAAGAAACACACACACATACACATAAATATA [CACACA_site3807],10.5
18,ACTTTATTTTCCTGTACACACATTTGACATATTAAA [CACACA_site3378],9.93
19,CACCAAACTAAATGTACACACATACATAAATATAAA [CACACA_site4765],9.92

row,Sequence,gcPBM binding intensity (ln)
1,AAAAACAAAAAAAAAACACACAATTCTAGTTATTTT [CACACA_site2767],9.63
2,TTTATGTAAAAATATAGTACATATTAAAAGATAAGA [XGTACX_site8134],9.75
3,ATATATTCCATAAAGGTGCTGTTAACGTGTCAACGT [GTGCAC_site9402],9.46
4,TAAGTATACACATACACACACACACTAAAAAAAAAA [CACACA_site6337],10.5
5,TAAACATAAATATGCACACATATACAGATATTCATA [CACACA_site5471],9.82
6,TTTTACTTAAGACACACACACACAAAAAAAAAAAAA [CACACA_site6573],10.8
7,ATAAAATACATATAAACACACATATAAACCGACATA [CACACA_site2477],10.1
8,AGTTTTTACTCTAATGGTACAGTGCAACTAATAAAT [XGTACX_site6950],9.49
9,AAAAAGAGGAAAAAGATAAAGAAATTAAAGGAGAGA [CACACA_negctrl_site423],9.62
10,TTTAATCATTTTATTTGTACTCATAAAAAATATAAT [XGTACX_site5537],9.45
11,AAAAAATATAAAAAAAGTACACAAAAACTACAAAAA [XGTACX_site2677],9.85
12,TAATTTCCTTAAGAATGTACTTACATTTTATTATTT [XGTACX_site5998],9.58
13,ATGGACAAGTTAAACGCACACAAATATATACAGACA [CACACA_site1652],10.2
14,TAATATGAAATGTGTACACACGCACCCACAAAAAAA [CACACA_site8949],10.1
15,GTTTATGTATTATTATGTACGTATCATAATATATAT [XGTACX_site2385],9.72
16,TCTGTAAACATATTCACACACATAAATTCGCATATA [CACACA_site1866],10
17,ACAAAATAATTGTTTACACACCCATTTGTAATTTTA [CACACA_site3615],9.78
18,TATCATTGTTCATGCTTGCACTTTTGTTACTGTTCC [GTGCAC_site9425],9.87
19,GAAAATTTATATTGCACACATAGGGAATAAAAAAAA [CACACA_site2146],9.99

row,Sequence,gcPBM binding intensity (ln)
1,AAAATGAAATATGTTATATATATATATATATATATA [CACACA_negctrl_site1752],9.65
2,TGTATGAAAATAAATGCATGCCAAATATATATATAT [TGCATGCA_site132],9.75
3,AAGAAGAAACGGAAAAGTACAAAGAAGAAATAAGTA [XGTACX_site3680],9.76
4,CTTACAGACATATATACACACATGTATATTTTATAT [CACACA_site549],9.96
5,TTTTCTTTTCTCTTCTTTTTCTCCCATTATTAATCT [XGTACX_negctrl_site406],9.55
6,ATGTTTTTAATTTATTGTACATTAATTTGTATTATT [XGTACX_site253],10
7,GAGGATGCCTATGGCACACATTATAAAACTGTCGCT [CACACA_site4322],9.6
8,TTTTTATTATTTAAATGTACATATAAATATATATAT [XGTACX_site6870],9.61
9,ATATTTTATATGTTCACACATACATAAACATATTTT [CACACA_site4948],9.75
10,GAATAAAAATTTTAATGTACATATTTTTTATTTATA [XGTACX_site8935],9.54
11,GGTAGTTATTATCTCCGTACTTATAAAGAAAAAAGG [XGTACX_site4674],9.51
12,TACAAATATATAAAATGTACATATATATACATATTA [XGTACX_site3029],9.62
13,TTTATTTTCATATGAACACACATATAAATATTATAA [CACACA_site7172],9.64
14,CATAAAATTGTGAAGTGTACATATTTTTAAATATAA [XGTACX_site8986],9.69
15,ATAACTTTATTTTCCTGTACACACATTTGACATATT [XGTACX_site7192],10.5
16,ATATATAATATAAGATGTACAATAAAATCTATATAT [XGTACX_site546],9.67
17,AGAAATATCTAATTGTGTACTCAAGAAAAAGTTACG [XGTACX_site372],9.59
18,TTAATATAAATATGATTTTTGATTCCTATACTATTT [CACACA_negctrl_site752],9.63
